Article PMC13575168
Results are given in words; binding and its absence hold for the method and conditions named. Binding seen in cells or lysates may run through a third protein. Some results given as binding are weak or reduced against the parent protein; the word gives no strength.

Key:
Experiment in all cases: co-IP
[1] = target: FLAG-tagged SARS-CoV-2 ORF3a Q70A (SARS-CoV-2) (UniProt P0DTC3)
[2] = target: FLAG-tagged SARS-CoV-2 ORF3a RWQ/AAA (SARS-CoV-2) (UniProt P0DTC3)
[3] = target: SARS-CoV-2 ORF3a^Y160A (SARS-CoV-2) (UniProt P0DTC3)
[4] = target: FLAG-tagged SARS-CoV-2 ORF3a R68A (SARS-CoV-2) (UniProt P0DTC3)
[5] = target: SARS-CoV-2 ORF3a^Q116L (SARS-CoV-2) (UniProt P0DTC3)
[6] = target: FLAG-tagged SARS-CoV-2 ORF3a W69A (SARS-CoV-2) (UniProt P0DTC3)

Measured: binding

B1: endogenous CLCC1 of 293FT cells (protein, UniProt Q96S66 19-551)
chain: HDDDWIDPTDMLNYDAASGTMRKSQAKYGISGEKDVSPDLSCADEISECYHKLDSLTYKIDECEKKKREDYESQSNPVFRRYLNKILIEAGKLGLPDENKGDMHYDAEIILKRETLLEIQKFLNGEDWKPGALDDALSDILINFKFHDFETWKWRFEDSFGVDPYNVLMVLLCLLCIVVLVATELWTYVRWYTQLRRVLIISFLFSLGWNWMYLYKLAFAQHQAEVAKMEPLNNVCAKKMDWTGSIWEWFRSSWTYKDDPCQKYYELLLVNPIWLVPPTKALAVTFTTFVTEPLKHIGKGTGEFIKALMKEIPALLHLPVLIIMALAILSFCYGAGKSVHVLRHIGGPESEPPQALRPRDRRRQEEIDYRPDGGAGDADFHYRGQMGPTEQGPYAKTYEGRREILRERDVDLRFQTGNKSPEVLRAFDVPDAEAREHPTVVPSHKSPVLDTKPKETGGILGEGTPKESSTESSQSAKPVSGQDTSGNTEGSPAAEKAQLKSEAAGSPDQGSTYSPARGVAGPRGQDPVSSPCG
binds: [1] | [2] | [3] | [4] | [5] | [6]
